Results taken from ChEMBL document CHEMBL4888484, “Replenishing the malaria drug discovery pipeline: Screening and hit evaluation of the MMV Hit Generation Library 1 (HGL1) against asexual blood stage Plasmodium falciparum ,using a nano luciferase reporter read-out” (2022).
About 540 (0.36%) of roughly 150,000 compounds showed an effect of 50% or more. Some of the results follow.

These molecules were tested on Plasmodium falciparum (assay: Primary screen in NF54 nanoGlo assay, in single point, at 2uM, 72h; a lower Z score goes with more inhibition). Details: timepoint 72 hour.
Type: functional, Erythrocyte

SMILES | % Inhibition [%] | Z score
c1cc(CCN2CCC[C@H](Cn3cncn3)C2)ccn1 | -3 | 0.4
c1c[nH]c(C(N[C@H]2CCCNC2)C2CCCCC2)n1 (stereo not given in full) | -3 | 0.38
COc1cccc2c1Oc1c(c(=O)n(-c3ccc(C)cc3C)n1CC(=O)Nc1ccccc1C)C2 | 2 | -0.37
Cn1ccc2c(cc(C(=O)N3CCN(c4ccccn4)CC3)n2C)c1=O | -14 | 1.39
CC[C@H](NC(=O)Nc1ccc(F)cc1)c1nc(C)n[nH]1 | -12 | 2.17
CCN(CC)CC#C[C@](O)(c1ccccc1)c1cccnc1 | -4 | 0.77
COc1cc2c(cc1OC)CN(S(=O)(=O)C1CCCCC1)CC2 | -15 | 1.88
CC(=O)N1CCc2cc(NS(=O)(=O)c3ccc(F)c(F)c3)ccc21 | 2 | -0.33
CCn1cc(C)c(C(=O)O)c1CC(=O)Nc1ccc(F)cc1Cl | 5 | -0.67
CCCC1CCCCN1C(=O)C(C)C(=O)O (stereo not given) | -15 | 1.73
N#Cc1c(F)ccc(NC(=O)C2(C(F)F)CCCC2)c1N | 21 | -2.69
Cc1ccc(CN2CC[C@@H]3CN(S(C)(=O)=O)[C@@H]3C2)c(C)c1 | -6 | 0.75
CCCN1CCC(Nc2ccc(-n3ccnn3)cc2)CC1 | -11 | 2.2
Cc1cc2c(cc3n2C[C@@](C)(C(=O)NC2CCCCC2)N(Cc2ccccc2F)C3=O)o1 | 1 | -0.28
O=C(NCCC1=CCCCC1)c1cscn1 | 0 | -0.07
O=C(NC[C@H]1CCCN1c1ncccn1)Nc1ccccc1 | -5 | 0.57
O=c1[nH]c2cc(Cl)c(S(=O)(=O)Cl)cc2[nH]1 | 69 | -7.82
CCC(=O)NCCc1ccc(C(F)(F)F)cn1 | -1 | 0.13
COc1ccc(-c2nc3c([nH]2)CCN(C(=O)NC(C)(C)C)C3)cn1 | -1 | 0.21
O=C(O)CC(NC(=O)C1Cc2ccccc21)c1cccc(Cl)c1 (stereo not given) | 4 | -0.81
CC(=O)N1CCN(c2cc(-c3noc([C@@H]4CCCN4Cc4ccccn4)n3)ccn2)CC1 | -3 | 0.42
CC(C)Oc1ccc(C(=O)NCc2cccnc2-c2ccncc2)cc1 | 2 | -0.35
COc1cc([C@@H]2C[C@H](NC(C)=O)C[C@H](CC(C)C)O2)ccc1F | -8 | 0.74
Cc1csc(-c2cc(S(=O)(=O)Nc3ccc(F)cc3Cl)c(C)s2)n1 | -10 | 1.18
COc1ccc(-c2noc(CCN(C(=O)COCc3ccccc3)C3CCCCC3)n2)cc1OC | 0 | -0.04
O=C(CN1CCOCC1)Nc1ccc(N2CCCC2)c(F)c1 | -9 | 1.16
CC1CC(C)CC(C(=O)NS(=O)(=O)CCCC(F)(F)F)C1 (stereo not given) | -13 | 2.09
Clc1ccc(CCCc2nc(CN3CCOCC3)no2)cc1 | -9 | 0.96

SMILES | % Inhibition [%] | Z score
O=C(COc1ccc(Cl)cc1)NC[C@@H](c1ccsc1)N1CCCC1 | 4 | -0.44
O=C(COc1ccc(Cl)cc1)NC[C@@]1(O)C=CCCC1 | -4 | 0.62
Cc1ccoc1C(=O)Nc1cccc2oc(C(F)(F)F)nc12 | -5 | 0.88
CCn1ccc(C(=O)N2CCCCC[C@H](Nc3nc(CCOC)ns3)C2)n1 | 22 | -2.81
CN=C(c1ccccc1)N1CCN(CCc2ccccn2)CC1 | 12 | -2.04
Cc1cc(=O)c(C(=O)Nc2ccc(-c3ccccn3)cn2)c[nH]1 | 2 | -0.42
Cc1csc(CNCC2(CS(C)(=O)=O)CC2)n1 | -11 | 1.13
CCC[C@H]1CN(C(=O)c2ccccc2Cc2ccc(C)cc2)C[C@@H]1N | 6 | -0.54
Fc1cccc2sc(OC3CCNCC3)nc12 | -1 | 0.12
Cc1ccccc1[C@@H]1c2ccsc2CCN1CCC(=O)N1CCCN(C(=O)CC(C)(C)C)CC1 | -2 | 0.29
CCc1nnc(CNC(=O)c2cc(O)cc(C(=O)OC)c2)o1 | 5 | -1.02
C[C@@H](C(=O)N1CCOCC1)N1CCC(c2ccn[nH]2)CC1 | -15 | 1.88
COC[C@H](C)N(C)Cc1cn2ccccc2c1C#N | -8 | 1.53
CC(C)(C1=CCCCC1)c1noc(C2CN(C(=O)C3CCCCC3)C2)n1 | -10 | 1.57
O=C(c1ccccc1F)N1c2ccccc2CCc2ccccc21 | -14 | 2.05
NC1(Cc2cc(-c3cccc(O)c3)on2)COC1 | 19 | -2.2
CCCNc1nc(N2CCOCC2)nc2c1cnn2C | 6 | -1.06
Cc1nnnn1Cc1ccc(C(=O)N2CCc3[nH]c(-c4cn[nH]c4)nc3C2)cc1 | 10 | -1.82
Cc1ccc(C(=O)Nc2sc(N)nc2-c2cccs2)cc1 | -11 | 1.66
CCc1noc(COc2ccc(C)cc2C(=O)Nc2ccncc2)n1 | 3 | -0.37
CCc1nc(C[C@H]2CN(c3nc(C)nc4c3cnn4C)CCO2)no1 | 2 | -0.32
CC(C)S(=O)(=O)CCNC(=O)c1coc(C2CCOCC2)n1 | -6 | 1.07
CC(C)C[C@@H](CO)NC(=O)Nc1ccc(C(C)(C)C#N)cc1 | 0 | 0
CCC(CC)C(=O)N1CC[C@@H](CC(=O)O)[C@@H](CC2=NCCc3ccc(C)cc32)C1 | -3 | 0.34
Nc1c(NC(=O)N2CCOCC2)c(-c2ccccc2)nn1-c1ccc(F)cc1 | 14 | -1.6
C=CC[C@]1(CO)CCCN(c2nc(N)nc3c2CCC3)C1 | -5 | 0.64
CC(C)(C)C[C@H](NC(=O)Nc1cccnn1)C(F)(F)F | -1 | 0.1
